Values marked as one replicate rest on one cluster of the flow cell; about a third of the high ones do not repeat.
tested on: ATP; assay: switch fluorescence ratio, 500 uM ATP over buffer (Cy3 cluster intensity, sum of 5 cycles each) (fold (ratio)); higher = stronger signal-on switching upon ATP binding; sequences stand for … in TCGTCGGCAGCGTCAGATGTGTATAAGAGACAGTTTTTTTTTTTTTTTTTTTTTTTTT…TC; settings: aptamer strand: ATP DNA aptamer (quencher-CACCTGGGGGAGTATTGCGGAGGAAGG + anchor), 100 nM annealed; ATP concentration: 500 uM; one replicate
Outline: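 Per cluster, summed Cy3 intensity from the target cycles was divided by that from the buffer cycles to give the fluorescence ratio, then averaged per switch-domain sequence. Clusters outside 100-1000 RFU were excluded. The Cy3-labelled switching-strand clusters, on a modified Illumina MiSeq flow-cell, were annealed to 100 nM quencher-labelled ATP aptamer and imaged in selection buffer, then after 15 min with 500 uM ATP at 22 °C, for five cycles with NaOH stripping and re-annealing between them.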
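Also: ATP exposure 15 min at 22 °C before imaging.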

Sequence	switch fluorescence ratio
TCAGGAGATG	1
TCAGGAGGA	0.994
TCAGGCAAGT	0.993
TCAGGCTGTG	0.954
TCAGGGACTG	0.996
TCAGGGATAT	0.992
TCAGGGCTGC	1.02
TCAGGGTAT	0.98
TCAGGGTTAA	1.03
TCAGGTCAGA	1.04
TCAGTCCGAT	1.03
TCAGTCTATA	1.04
TCAGTGAAAA	0.956
TCAGTGAAG	0.977
TCAGTGAATC	1.01
TCAGTGCCA	1.03
TCAGTGGTAT	0.955
TCAGTGTAGC	0.992
TCAGTGTGTG	0.975
TCAGTTCC	1.09
TCAGTTCCCC	0.965
TCAGTTCTA	0.975
TCAGTTGGCG	0.994
TCATAAACAA	1.03
TCATAACGTT	0.956

Sequence	switch fluorescence ratio
TCATACAACG	1.1
TCATACTGTA	1.21
TCATACTTAT	0.982
TCATAGTGTA	0.999
TCATATGAAT	1
TCATCAGAGG	0.987
TCATCCTTGA	1.01
TCATCGCATA	3.37
TCATCGCTC	1.23
TCATGACCGA	1.04
TCATGCAACC	1.18
TCATGCGAGG	0.995
TCATGCGGT	0.96
TCATGGCAA	0.982
TCATGGCTCA	0.975
TCATGGCTGG	0.991
TCATGGTCAG	0.961
TCATGGTGCT	1.08
TCATGTCTCA	1.04
TCATGTGATT	1
TCATTAAGCC	0.992
TCATTAATCT	1.03
TCATTATGC	0.932
TCATTCCAGA	1
TCATTCCGTG	1.07

Sequence	switch fluorescence ratio
TCATTCCTAG	1.02
TCATTCGACT	1.03
TCATTCTCAA	1.05
TCATTCTGCA	1.08
TCATTCTTAT	0.98
TCATTGAGGG	0.966
TCATTGGCGG	1.01
TCATTGTAGG	0.982
TCATTTTG	1.01
TCCAAAATGT	1.01
TCCAACCCCT	1.02
TCCAACTGCC	1.18
TCCAAGAAAT	1.07
TCCAAGATCA	1.01
TCCAATTCCG	1
TCCAATTCGC	1.06
TCCACATATG	0.989
TCCACCTATT	1.07
TCCACCTCGT	1
TCCACGAGGA	1
TCCACGGAGA	1.1
TCCACGTAGG	1.09
TCCACTAGTT	0.982
TCCAGACGGA	0.973
TCCAGAGAT	0.994

Sequence	switch fluorescence ratio
TCCAGAGTCC	1.07
TCCAGCATA	1.89
TCCAGGGTCT	1.08
TCCAGTTAAT	0.997
TCCATAATCT	1.07
TCCATATTAT	0.956
TCCATCCATG	1.03
TCCATCTTCG	0.981
TCCATGCAAT	4.25
TCCATTATTT	1.02
TCCATTGTTC	0.996
TCCATTTAGT	1
TCCCAGGAAT	1.13
TCCCATGCCG	0.979
TCCCCAGGAC	1.56
TCCCCATAGT	1.1
TCCCCCTCTA	1.07
TCCCCGACGA	2.35
TCCCCTAGTC	1.11
TCCCGCCCCT	1.57
TCCCGGCACG	1.02
TCCCTACACC	1.09
TCCCTAGGGT	1.06
TCCCTGAACT	1.01
TCCCTGTGAG	1.01
